# Results: US20250296996A1, “ANGIOPOIETIN-RELATED PROTEIN 7-SPECIFIC ANTIBODIES AND USES THEREOF” (Broadwing Bio, Inc., priority 2022, published 2025)
# T1: mouse ANGPTL7 protein (muANGPTL7-his, R&D Systems) (Mus musculus, UniProt Q8R1Q3)
# T1 construct: His; purchased R&D Systems
# T1 sequence (Q8R1Q3 22-337): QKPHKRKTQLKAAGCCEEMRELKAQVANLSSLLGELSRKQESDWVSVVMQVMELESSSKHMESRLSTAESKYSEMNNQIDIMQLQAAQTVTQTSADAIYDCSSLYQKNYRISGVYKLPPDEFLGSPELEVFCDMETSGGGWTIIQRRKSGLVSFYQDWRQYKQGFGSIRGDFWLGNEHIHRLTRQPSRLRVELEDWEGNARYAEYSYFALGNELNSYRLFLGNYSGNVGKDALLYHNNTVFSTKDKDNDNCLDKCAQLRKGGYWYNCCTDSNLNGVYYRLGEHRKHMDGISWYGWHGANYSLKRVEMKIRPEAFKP
# Assays:
# [1] = target: T1, mouse ANGPTL7 protein (muANGPTL7-his, R&D Systems); experiment: Octet HTX binding kinetics to muANGPTL7-his; settings: muANGPTL7-his @ 200 nM
# Experimental: (§1) Experiments were also conducted to determine the reactivity and dissociation constants (KD) of anti-ANGPTL7 antibodies with the mouse ANGPTL7 protein. Binding experiments were performed on Octet HTX (ForteBio) in 1×PBS, pH 7.4, 0.1 mg/mi BSA, 0.05% Sodium Azide, and 0.02% Tween 20. Antibodies at a concentration of 50 nM were loaded on pre-hydrated AHC biosensors for 5 mA. The loaded sensors were dipped into monovalent muANGPTL7-his (R&D Systems) at a concentration of 200 nM for 5 min of association, followed by 10 min of dissociation. Results were analyzed with ForteBio Data Analysis 11.1 and fit to a 1:1 binding model to determine the monovalent KD. Responses (nm) at the end of association were also determined (Table 5).
# [2] = Differential scanning fluorimetry (Protein Thermal Shift assay), thermal stability; format: physicochemical; settings: DSF, melt 25° C. to 95° C., triplicate; in °C (unit assumed)
# Experimental: Human ANGPTL7 monoclonal antibody differential scanning fluorimetry (DSF). […] Among the many techniques used to study the stability of mAbs, differential scanning fluorimetry (DSF) offers both excellent throughput and minimal material consumption. DSF measures the temperature of the protein unfolding transition (Tm) based on the change in fluorescence intensity of an environmentally sensitive dye.
# Experiments were conducted to assess the thermal stability of the human ANGPTL7 monoclonal antibodies (“ATX” antibodies) of the present disclosure by determining the melting temperature. Thermal stability was assessed via differential scanning fluorimetry (DSF) utilizing the Protein Thermal Shift (PTS) assay from Applied Biosystems. The assay was performed according to the manufacturer's instruction. Briefly, the antibody to be evaluated was prepared in triplicate by mixing with Protein Thermal Shift dye and buffer; a real-time melt experiment from 25° C. to 95° C. was run on QuantStudio 3. Data was analyzed by using Protein Thermal Shift Software and the melting temperature (Tm) was calculated from the melt curve (Table 1).
# [3] = tested on: rabbit ANGPTL7 protein (P66, rabbit ANGPTL7-his); experiment: Octet HTX binding kinetics to P66 (rabbit ANGPTL7-his); settings: P66 @ 200 nM
# Experimental: as §1, with “([…])” for “(KD)”, “rabbit” for “mouse”, “Rx PBS,” for “1×PBS,”, “min.” for “mA.”, “P66 (rabbit ANGPTL7-his)” for “muANGPTL7-his (R&D Systems)”, “6).” for “5).”
molecule,measurement,setting,value
ATX-P-425 (antibody) heavy: EVQLVESGGGLVKPGGSLRLSCAASGFTFSTYSMNWVRQAPGKGLEWVSSITSSSSYMFYADSVMGRFTISRDNAKNSLYLQMNSLRAEDTADYYCARDSNWGEAFDIWGQGTMVTVSSASTKGPSVFPLAPSSKSTSGGTAALGCLVKDYFPEPVTVSWNSGALTSGVHTFPAVLQSSGLYSLSSVVTVPSSSLGTQTYICNVNHKPSNTKVDKRV[in this place human IgG1 Fc with changes] light: DIQMTQSPSSLSASVGDRVTITCRASQGIRIDLGWFQQKPGKAPKRLIYAASSLPSGVPSRFSGSGSGTEFTLTISSLQPEDFATYYCLQHNSYPWTFGQGTKVEIKRTVAAPSVFIFPPSDEQLKSGTASVVCLLNNFYPREAKVQWKVDNALQSGNSQESVTEQDSKDSTYSLSSTLTLSKADYEKHKVYACEVTHQGLSSPVTKSFNRGEC,Response,[1]; at end of association,0.20 nm
same,KD (M),"[1]; monovalent KD, 1:1 model",P.F./L.R.
same,Tm 2 - Mean,[2],71.94
same,Tm D - Mean,[2],62.97
same,kdis(1/8),[3],9.79E−05 1/8
